# Measured values reported in publication PMC12102759.
# B1: BCAR1 peptide 627-642 (Breast cancer anti-estrogen resistance protein 1), 16-mer library wild type / YES SH3 (YES1 SH3 domain, residues 90-152) (parent)
# chain 1: DKTSSIQSRPLPSPPK
# chain 2: TGGVTIFVALYDYEARTTEDLSFKKGERFQIINNTEGDWWEARSIATGKNGYIPSNYVAPADS
# B2: BCAR1 peptide 629-644 (Breast cancer anti-estrogen resistance protein 1), 16-mer library wild type / YES SH3 (YES1 SH3 domain, residues 90-152) (parent)
# chain 1: TSSIQSRPLPSPPKFT
# chain 2: B1 chain 2
# B3: CBL peptide 538-553 (E3 ubiquitin-protein ligase CBL), 16-mer library wild type / YES SH3 (YES1 SH3 domain, residues 90-152) (parent)
# chain 1: TLRDLPPPPPPDRPYS
# chain 2: B1 chain 2
# B4: CBL peptide 540-555 (E3 ubiquitin-protein ligase CBL), 16-mer library wild type / YES SH3 (YES1 SH3 domain, residues 90-152) (parent)
# chain 1: RDLPPPPPPDRPYSVG
# chain 2: B1 chain 2
# Variants of: B1
# Test: proteomic peptide phage display deep mutational scan (ProP-PD DMS): M13 P8 16-mer library selected against immobilised GST-tagged bait for four days (rounds), NGS of the eluted pools per day and pseudo-replica
# Settings: with YES SH3 (YES1 SH3 domain, residues 90-152); bait immobilised on MaxiSorp plates (10 µg), library pre-cleared on GST, 2 h binding at 4 °C, five washes; one round per day, days 1-4; value from days 2 and 3; keep out of graded; scale: average fractional NGS count over selection days 2 and 3
row,Variant,screen value
1,chain 1 P12A,0
2,chain 1 I6T,0.00102
3,chain 1 I6W,9.94e-05
4,chain 1 I6Y,0.000104
5,chain 1 I6S,3.96e-05
6,chain 1 I6V,0.000109
7,chain 1 I6F,0.000384
8,chain 1 I6A,0.000117
9,chain 1 I6H,3.02e-05
10,chain 1 I6E,4.52e-05
11,chain 1 I6Q,0.000104
12,chain 1 I6G,2.68e-05
13,chain 1 I6D,0.000255
14,chain 1 I6N,0.000337
15,chain 1 I6P,4.47e-05
16,chain 1 I6M,0.000326
17,chain 1 I6L,0.000527
18,chain 1 S5M,0.000106
19,chain 1 S5E,0.000154
20,chain 1 S5L,4.23e-05
21,chain 1 S5K,7.33e-05
22,chain 1 S5D,0.000229
23,chain 1 S5R,8.28e-05

row,Variant,screen value
1,chain 1 S5P,0.000193
2,chain 1 S5G,0.000507
3,chain 1 S5Y,0.000636
4,chain 1 S5Q,0.000132
5,chain 1 S5V,0.000182
6,chain 1 S5H,0.00215
7,chain 1 S5A,0.00108
8,chain 1 S5F,1.79e-05
9,chain 1 S5T,0.000244
10,chain 1 S5W,0.000171
11,chain 1 S5N,5.45e-05
12,chain 1 R9D,1.05e-05
13,chain 1 R9S,0.000624
14,chain 1 R9T,0.000495
15,chain 1 R9I,0.000887
16,chain 1 R9M,0.000769
17,chain 1 R9A,0.0003
18,chain 1 R9W,8.04e-05
19,chain 1 R9V,0.00123
20,chain 1 R9E,9.37e-05
21,chain 1 R9Y,2.2e-05
22,chain 1 R9K,0
23,chain 1 R9H,0.00169

row,Variant,screen value
1,chain 1 R9Q,2.09e-05
2,chain 1 R9N,0.000169
3,chain 1 R9G,1.28e-05
4,chain 1 R9L,0.000193
5,chain 1 T3I,0
6,chain 1 T3N,0.000164
7,chain 1 T3A,0.000673
8,chain 1 T3G,0.000642
9,chain 1 T3H,0.000245
10,chain 1 T3Q,0.000123
11,chain 1 T3W,0.000148
12,chain 1 T3V,0.000108
13,chain 1 T3M,7.42e-05
14,chain 1 T3K,2.45e-05
15,chain 1 T3P,0.000477
16,chain 1 T3F,2.69e-05
17,chain 1 T3E,0.000411
18,chain 1 T3D,0.000304
19,chain 1 T3L,0.000697
20,chain 1 T3R,0
21,chain 1 T3Y,0

# Variants of: B2
# Test: as above
# Settings: with YES SH3 (YES1 SH3 domain, residues 90-152); bait immobilised on MaxiSorp plates (10 µg), library pre-cleared on GST, 2 h binding at 4 °C, five washes; one round per day, days 1-4; value from days 2 and 3; keep out of graded; scale: average fractional NGS count over selection days 2 and 3
row,Variant,screen value
1,chain 1 T1H,0.000136
2,chain 1 T1W,8.16e-05
3,chain 1 T1L,1.54e-05
4,chain 1 T1M,7.57e-05
5,chain 1 T1G,0
6,chain 1 T1Q,7.31e-05
7,chain 1 T1D,2.54e-05
8,chain 1 T1E,5.93e-05
9,chain 1 T1K,0
10,chain 1 T1Y,0.000118
11,chain 1 T1I,1.25e-05
12,chain 1 T1V,0.000586
13,chain 1 T1S,7.16e-05
14,chain 1 T1P,0
15,chain 1 T1R,2.13e-05
16,chain 1 S3Q,0.000263
17,chain 1 S3W,6.21e-05
18,chain 1 S3Y,0.000322
19,chain 1 S3V,0.000264
20,chain 1 S3T,0.000168
21,chain 1 S6V,0.000179
22,chain 1 S6Y,0.000829
23,chain 1 S6H,7.17e-05
24,chain 1 S6T,5.92e-05
25,chain 1 S6E,0.000653
26,chain 1 S6A,5.09e-05
27,chain 1 S6Q,2.53e-05
28,chain 1 S6R,0

row,Variant,screen value
1,chain 1 S6F,2.52e-05
2,chain 1 S6M,0.00134
3,chain 1 S6L,0.000462
4,chain 1 S6N,0.000192
5,chain 1 S6D,0.000247
6,chain 1 S6I,0.000204
7,chain 1 S6P,0.000122
8,chain 1 S6G,0.00078
9,chain 1 S6W,6.23e-05
10,chain 1 S6K,7.9e-05
11,chain 1 S11D,0.000524
12,chain 1 S11Q,2.53e-05
13,chain 1 S11A,0.000125
14,chain 1 S11M,7.28e-05
15,chain 1 S11Y,3.41e-05
16,chain 1 S11K,0.000864
17,chain 1 S11F,0.00018
18,chain 1 S11H,0.000319
19,chain 1 S11V,0.000612
20,chain 1 S11P,0.000188
21,chain 1 S11N,0.000246
22,chain 1 S11I,0.000138
23,chain 1 S11R,2.92e-05
24,chain 1 S11W,2.62e-05
25,chain 1 S11L,2.23e-05
26,chain 1 S11T,0.000421
27,chain 1 S11E,0.00407

# Variants of: B3
# Test: as above
# Settings: with YES SH3 (YES1 SH3 domain, residues 90-152); bait immobilised on MaxiSorp plates (10 µg), library pre-cleared on GST, 2 h binding at 4 °C, five washes; one round per day, days 1-4; value from days 2 and 3; keep out of graded; scale: average fractional NGS count over selection days 2 and 3
row,Variant,screen value
1,chain 1 P8R,1.64e-05
2,chain 1 P6T,1.18e-05
3,chain 1 P6G,5.34e-05
4,chain 1 P7D,4.52e-05

# Variants of: B4
# Test: as above
# Settings: with YES SH3 (YES1 SH3 domain, residues 90-152); bait immobilised on MaxiSorp plates (10 µg), library pre-cleared on GST, 2 h binding at 4 °C, five washes; one round per day, days 1-4; value from days 2 and 3; keep out of graded; scale: average fractional NGS count over selection days 2 and 3
row,Variant,screen value
1,chain 1 P7S,1.15e-05
2,chain 1 R1D,3.74e-05
3,chain 1 R1S,3.6e-05
4,chain 1 R1Y,7.56e-06
5,chain 1 R1W,1.53e-05
6,chain 1 R1G,2.27e-05
7,chain 1 D2T,1.05e-05
8,chain 1 D2L,6.04e-05
9,chain 1 Y13D,1.01e-05
10,chain 1 Y13T,4.73e-05
11,chain 1 Y13M,8.8e-05
12,chain 1 P9N,1.81e-05
13,chain 1 P9H,4.85e-05
14,chain 1 V15D,1.41e-05
15,chain 1 R11W,2.07e-05
16,chain 1 R11N,4.27e-05
17,chain 1 P12E,6.36e-05
18,chain 1 P12R,1.87e-05
19,chain 1 P12T,3.4e-05
20,chain 1 P8R,6.78e-05
21,chain 1 P8Q,4.82e-05

row,Variant,screen value
1,chain 1 P8H,1.69e-05
2,chain 1 L3H,0
3,chain 1 L3Y,3.77e-05
4,chain 1 L3D,4.03e-05
5,chain 1 L3R,2.75e-05
6,chain 1 P4N,4.39e-05
7,chain 1 P4S,6.3e-05
8,chain 1 P4W,0
9,chain 1 P4R,3.48e-05
10,chain 1 P4D,2.85e-05
11,chain 1 P6T,1.74e-05
12,chain 1 P6G,8.17e-06
13,chain 1 P6S,6.53e-05
14,chain 1 P6I,0
15,chain 1 P6D,6.74e-05
16,chain 1 P6H,2.27e-05
17,chain 1 S14W,0
18,chain 1 S14K,2.32e-05
19,chain 1 P5E,4.8e-05
20,chain 1 D10R,1.63e-05
